This passage reports gametocyte viability results from the supplement of paper PMC12297408.

The assay has as its system Plasmodium falciparum NF54/iGP1_RE9H ulg8 stage V gametocytes. Put plainly: gametocyte viability (luciferase signal relative to DMSO control) (% of DMSO control); higher = less gametocytocidal activity, active = 50 or less. The following applies: exposure time: 72 h. In outline: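 In 96-well plates holding nanolitre spots of compound (10 mM DMSO stocks), NF54/iGP1_RE9Hulg8 stage V gametocytes from day 12 were added at ~2.5% gametocytemia and 3% hematocrit in medium with 0.5% Albumax II, giving single wells at 10 µM or 1 µM. Incubation lasted 72 h at 37 °C. Each 90 µl sample then received 10 µl D-luciferin (30 mg/ml) before luminescence reading on an IVIS Lumina II, and viability was normalized to the mean of DMSO vehicle wells on the same plate.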

Structures are written as SMILES. Structures can show the parent of a compound that is named as a salt. Out of some 1,300 compounds screened, about 40 (3%) showed activity. Some of the results follow.

With `O=C1[C@H](CC[C@H](O)c2ccc(F)cc2)[C@@H](c2ccc(O)cc2)N1c1ccc(F)cc1` [Ezetimibe], the gametocyte viability was inactive: 98.8 (concentration: 1 µM) and inactive: 94.4 (concentration: 10 µM).

Regarding `COc1ccccc1N1CCN(CCCCNC(=O)c2ccc3ccccc3c2)CC1`, the gametocyte viability (concentration: 1 µM) was inactive: 82.8 and the gametocyte viability (concentration: 10 µM) was inactive: 73.7.

As for `CCC1NC(=O)c2cc(S(N)(=O)=O)c(Cl)cc2N1` (stereo not given) [Quinethazone], the gametocyte viability reads like this: (concentration: 1 µM) inactive: 87.2; (concentration: 10 µM) inactive: 84.7.

As to `Cn1c(=O)c2c(ncn2CCO)n(C)c1=O` [Etofylline], the gametocyte viability is inactive: 80.9 (concentration: 1 µM) and inactive: 82.4 (concentration: 10 µM).

As to `CC(C)NCC(O)c1cc(O)cc(O)c1` (stereo not given) [Metaproterenol sulfate, orciprenaline sulfate], the gametocyte viability reads like this: (concentration: 1 µM) inactive: 94.6; (concentration: 10 µM) inactive: 93.6.

`O=C(O)CN(CCN(CC(=O)O)CC(=O)O)CCN(CC(=O)O)CC(=O)O` [Pentetic acid]: the gametocyte viability by setting is: (concentration: 1 µM) inactive: 101; (concentration: 10 µM) inactive: 101.

For the molecule `C#CCN(C)CCCOc1ccc(Cl)cc1Cl` [Clorgyline hydrochloride], the gametocyte viability was inactive: 83 (concentration: 1 µM) and inactive: 80.5 (concentration: 10 µM).

For `CCC(=O)OCC(=O)[C@@]1(OC(=O)CC)[C@@H](C)C[C@H]2[C@@H]3CCC4=CC(=O)C=C[C@]4(C)[C@@]3(Cl)[C@@H](O)C[C@@]21C` [Beclomethasone dipropionate], the gametocyte viability (concentration: 1 µM) is inactive: 85.8 and the gametocyte viability (concentration: 10 µM) was inactive: 80.6.

For the molecule `CCN(CC)Cc1cc(Nc2ccnc3cc(Cl)ccc23)ccc1O` [Amodiaquin dihydrochloride dihydrate], the gametocyte viability by setting is: (concentration: 1 µM) inactive: 76.8; (concentration: 10 µM) inactive: 62.6.

For `COc1ccccc1N1CCN(CCCNc2cc(=O)n(C)c(=O)n2C)CC1` [Urapidil hydrochloride], the gametocyte viability was inactive: 75.6 (concentration: 1 µM) and active: 48.5 (concentration: 10 µM).

As to `COc1nc(N)nc2c1ncn2[C@@H]1O[C@H](CO)[C@@H](O)[C@@H]1O` [Nelarabine], the gametocyte viability is, setting by setting: (concentration: 1 µM) inactive: 82; (concentration: 10 µM) inactive: 80.4.

`O=C1NCCN1CCN1CCC(c2cn(-c3ccc(F)cc3)c3ccc(Cl)cc23)CC1` [Sertindole]: the gametocyte viability runs as follows: (concentration: 1 µM) inactive: 97.7; (concentration: 10 µM) inactive: 82.3.

As for `O=C1CCC(N2C(=O)c3ccccc3C2=O)C(=O)N1` (stereo not given) [Thalidomide], the gametocyte viability was inactive: 85.3 (concentration: 1 µM) and inactive: 86.6 (concentration: 10 µM).

For `Clc1ccc(C(Cn2ccnc2)OCc2csc3c(Cl)cccc23)c(Cl)c1` (stereo not given) [Sertaconazole nitrate], the gametocyte viability (concentration: 1 µM) is inactive: 90.8 and the gametocyte viability (concentration: 10 µM) was inactive: 78.8.

As for `CC(=O)OCC1=C(C(=O)O)N2C(=O)[C@@H](NC(=O)Cc3cccs3)[C@H]2SC1` [Cephalothin sodium salt], the gametocyte viability was inactive: 87 (concentration: 1 µM) and inactive: 92.3 (concentration: 10 µM).

On to `CCN(CC)CCNC(=O)COc1ccc(OC)cc1` [Mefexamide hydrochloride], for which the gametocyte viability by setting is: (concentration: 1 µM) inactive: 98.9; (concentration: 10 µM) inactive: 98.9.

Take `CC1(C)S[C@@H]2[C@H](NC(=O)Cc3ccccc3)C(=O)N2[C@H]1C(=O)O` [Benzylpenicillin sodium]: the gametocyte viability was inactive: 81.6 (concentration: 1 µM) and inactive: 84.5 (concentration: 10 µM).

`CCCCc1nc(Cl)c(CO)n1Cc1ccc(-c2ccccc2-c2nnn[nH]2)cc1` [Losartan]: the gametocyte viability is inactive: 83.7 (concentration: 1 µM) and inactive: 81.1 (concentration: 10 µM).

`CCC(C)n1ncn(-c2ccc(N3CCN(c4ccc(OCC5COC(Cn6cncn6)(c6ccc(Cl)cc6Cl)O5)cc4)CC3)cc2)c1=O` (stereo not given) [Itraconazole]: the gametocyte viability (concentration: 1 µM) is inactive: 80.5 and the gametocyte viability (concentration: 10 µM) was inactive: 64.

Take `Cc1cccc(Nc2ccccc2C(=O)O)c1C` [Mefenamic acid]: the gametocyte viability by setting is: (concentration: 1 µM) inactive: 94; (concentration: 10 µM) inactive: 94.6.

Regarding `C[n+]1ccccc1/C=N/O` [Pralidoxime chloride], the gametocyte viability is, setting by setting: (concentration: 1 µM) inactive: 97.1; (concentration: 10 µM) inactive: 95.4.

Turning to `O=C(O)CCNC(=O)c1ccc(/N=N/c2ccc(O)c(C(=O)O)c2)cc1` [Balsalazide Sodium], the gametocyte viability is, setting by setting: (concentration: 1 µM) inactive: 83.6; (concentration: 10 µM) inactive: 87.9.

As to `O=C1OC(CN2CCOCC2)CN1/N=C/c1ccc([N+](=O)[O-])o1` (stereo not given) [Furaltadone hydrochloride], the gametocyte viability by setting is: (concentration: 1 µM) inactive: 89.7; (concentration: 10 µM) inactive: 93.4.

For `CNCCCN1c2ccccc2CCc2ccccc21` [Desipramine hydrochloride], the gametocyte viability by setting is: (concentration: 1 µM) inactive: 80.3; (concentration: 10 µM) inactive: 80.5.

As to `Nc1nc(O)c2ncn(CCC(CO)CO)c2n1` [Penciclovir], the gametocyte viability reads like this: (concentration: 1 µM) inactive: 83.5; (concentration: 10 µM) inactive: 81.8.

As to `Fc1ccc([C@@H]2CCNC[C@H]2COc2ccc3c(c2)OCO3)cc1` [Paroxetine Hydrochloride], the gametocyte viability (concentration: 1 µM) was inactive: 89.6 and the gametocyte viability (concentration: 10 µM) was inactive: 51.5.

Consider `O=c1[nH]cnc2c1ncn2[C@H]1CC[C@@H](CO)O1` [Didanosine], for which the gametocyte viability is, setting by setting: (concentration: 1 µM) inactive: 81.7; (concentration: 10 µM) inactive: 84.

As to `CN(C/C=C/C#CC(C)(C)C)Cc1cccc2ccccc12` [Terbinafine], the gametocyte viability runs as follows: (concentration: 1 µM) inactive: 81.4; (concentration: 10 µM) inactive: 85.6.

On to `NCCC[C@H](N)CC(=O)N[C@H]1CNC(=O)[C@H]([C@H]2C[C@H](O)NC(N)=N2)NC(=O)/C(=C/NC(N)=O)NC(=O)[C@H](CO)NC(=O)[C@H](CO)NC1=O` [Viomycin sulfate], for which the gametocyte viability is inactive: 95 (concentration: 1 µM) and inactive: 96.5 (concentration: 10 µM).

For `CN(C)CCCN1c2ccccc2CCc2ccccc21` [Imipramine hydrochloride], the gametocyte viability (concentration: 1 µM) was inactive: 96.7 and the gametocyte viability (concentration: 10 µM) was inactive: 92.4.
